Here are results for 58 molecules from the supplement of paper PMC9446081.

Among all 39,000 compounds or so, about 220 (0.56%) showed activity. The list shows a part of the results.
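Also: static incubation at 37 °C against the wild-type strain, values averaged over two biological replicates.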

The subject of this assay is Escherichia coli K-12 BW25113. Kind of assay: relative growth (OD600 normalised to plate interquartile mean) (fraction); higher = less growth inhibition, active = 0.2 or less. As to conditions: 50 µM; LB; incubation time: overnight (16-24 h).
Turning to `CC(C)CC#Cc1cnc2c(c1)C(=O)N([C@@H](C)CO)C[C@@H](C)[C@H](CN(C)C(=O)CN1CCOCC1)O2`, the relative growth was inactive: 0.846.
The result for `CC(C)NC(=O)Nc1ccc2c(c1)C(=O)N([C@@H](C)CO)C[C@@H](C)[C@@H](CN(C)C(=O)Nc1ccccc1)OCCCC[C@@H](C)O2` reads inactive: 1.
`CCn1c(Cl)nc2c1c(=O)n(C)c(=O)n2C`: the relative growth is inactive: 0.927.
For the molecule `Cc1cn([C@H]2C[C@H](N=[N+]=[N-])[C@@H](CO)O2)c(=O)[nH]c1=O`, the relative growth was active: 0.048.
Under `COc1ccc(S(=O)(=O)N(C)C[C@H]2Oc3ccc(NS(=O)(=O)c4cccs4)cc3CC(=O)N([C@@H](C)CO)C[C@@H]2C)cc1` stands inactive: 0.987; under `COc1ccc2c3c([nH]c2c1)[C@@H](CO)N(C[C@]13CN(C1)S(=O)(=O)c1cccs1)C(=O)c1ccccc1`, inactive: 1; under `CN1CCN(c2c(F)cc3c(=O)c(C(=O)O)cn4c3c2SCC4)CC1`, active: 0.0436.
The result for `O=C(/C=C/c1ccc(O)cc1)[C@H]1C(=O)[C@H]([C@@H]2O[C@H](CO)[C@@H](O)[C@H](O)[C@H]2O)C(=O)[C@@](O)([C@@H]2O[C@H](CO)[C@@H](O)[C@H](O)[C@H]2O)C1=O` reads inactive: 1.03; that for `C[C@H]1CN([C@@H](C)CO)C(=O)c2cc(NC(=O)Nc3cccc4ccccc34)ccc2O[C@H]1CN(C)Cc1ccccc1`, inactive: 1.02.
As for `C[C@@H]1CCCCO[C@@H](CN(C)C(=O)Nc2cccc3ccccc23)[C@H](C)CN([C@@H](C)CO)C(=O)c2cc(NS(=O)(=O)c3cccs3)ccc2O1`, the relative growth was inactive: 1.03.
The result for `C[C@H]1CN([C@@H](C)CO)C(=O)c2cccc(NC(=O)Nc3cccc4ccccc34)c2O[C@H]1CN(C)Cc1ccc(C(=O)Nc2ccccc2N)cc1` reads inactive: 1.01; that for `O=C1CCC(C(=O)N2CCN(CC3CC3)[C@@H]3CS(=O)(=O)C[C@@H]32)=NN1`, inactive: 1; that for `CC(C)=CCc1c2c(c3occ(-c4ccc(O)cc4)c(=O)c3c1O)C=CC(C)(C)O2`, inactive: 0.883.
Under `C[C@H]1CN([C@@H](C)CO)C(=O)c2c(c3ccccc3n2C)-c2ccccc2CO[C@@H]1CN(C)C(=O)Nc1ccc(-c2ccccc2)cc1` stands inactive: 1.02; under `C=CC[C@@H](CC(=O)N[C@@H](CO)Cc1ccccc1)C(=O)NCCOC(=O)[C@H](CC=C)CC(=O)OC(C)(C)C`, inactive: 1.02.
In the case of `C[C@@H]1CCCCO[C@@H](CN(C)Cc2ccc(C(F)(F)F)cc2)[C@@H](C)CN([C@H](C)CO)C(=O)c2cc(NS(=O)(=O)c3ccccc3)ccc2O1`, the relative growth is inactive: 1.03.
Under `CCS(=O)(=O)N1C[C@]2(CCN(CC2)S(=O)(=O)c2cn(cn2)C)c2c(n(c3cc(ccc23)OC)C)[C@H]1CO` stands inactive: 0.986.
In the case of `C[C@H]1CN([C@@H](C)CO)C(=O)Cc2cc(NS(=O)(=O)c3cn(C)cn3)ccc2O[C@@H]1CN(C)C(=O)NC1CCCCC1`, the relative growth is inactive: 0.969.
The result for `COc1ccc(NC(=O)Nc2ccc3c(c2)C(=O)N([C@H](C)CO)C[C@@H](C)[C@@H](CN(C)S(=O)(=O)c2ccc(Cl)cc2)OCCCC[C@@H](C)O3)cc1` reads inactive: 1.02; that for `C#CCOC(=O)[C@@H]1[C@@H](C(=O)O)[C@@H]2C=C[C@@H]1C2`, inactive: 1.01; that for `C[C@H](CO)N1C[C@H](C)[C@H](CN(C)Cc2ccc(Oc3ccccc3)cc2)Oc2c(NS(=O)(=O)c3ccccc3)cccc2C1=O`, inactive: 1.
The result for `Cc1noc(C)c1NC(=O)Nc1ccc2c(c1)C(=O)N([C@H](C)CO)C[C@H](C)[C@H](CN(C)CC1CC1)OCCCC[C@H](C)O2` reads inactive: 1.01.
As to `C[C@@H]1CN([C@H](C)CO)C(=O)c2cccc(NC(=O)Nc3ccc(F)cc3)c2O[C@@H]1CN(C)Cc1ccc(-c2ccccc2)cc1`, the relative growth is inactive: 1.
With `Cc1ccc(S(=O)(=O)N(C)C[C@H]2OCCCC[C@H](C)Oc3ccc(NC(=O)Nc4ccccc4)cc3C(=O)N([C@H](C)CO)C[C@H]2C)cc1`, the relative growth is inactive: 1.03.
Under `NCc1ccc2nsnc2c1` stands inactive: 0.98; under `C[C@H]1CCCCO[C@H](CN(C)C(=O)Nc2ccc(F)cc2)[C@@H](C)CN([C@@H](C)CO)C(=O)c2cc(NC(=O)CCC(F)(F)F)ccc2O1`, inactive: 1.04.
Under `CC(=O)SC1CC2=CC(=O)CCC2(C)C2CCC3(C)C(CCC34CCC(=O)O4)C12` (stereo not drawn) stands inactive: 1.11; under `Cc1ccccc1S(=O)(=O)N1C[C@H](O)COC[C@@H]2O[C@H](CC(=O)NCCc3ccccc3)CC[C@H]21`, inactive: 1.01; under `C[C@@H]1CN([C@H](C)CO)C(=O)Cc2cc(NC(=O)Cn3cnnn3)ccc2O[C@@H]1CN(C)Cc1ccc(-c2ccccc2)cc1`, inactive: 1.02.
Under `Cc1noc(C)c1N` stands inactive: 0.981; under `Cc1ccc(S(=O)(=O)Nc2ccc3c(c2)C(=O)N([C@H](C)CO)C[C@H](C)[C@@H](CN(C)Cc2ccc(Cl)c(Cl)c2)OCCCC[C@H](C)O3)cc1`, inactive: 0.992.
In the case of `COc1ccc([Si](C)(C)[C@H]2[C@H](CC(=O)N(CCO)Cc3ccccc3)O[C@@]3(C(=O)N(Cc4ccc(N5CCOC5=O)cc4)c4ccccc43)[C@@H]2C)cc1`, the relative growth was inactive: 0.988.
As to `COC(=O)c1cc(=O)[nH]c2c1c(=O)n(C)c(=O)n2C`, the relative growth was inactive: 1.02.
With `C[C@@H]1CN([C@@H](C)CO)S(=O)(=O)c2ccc(-c3cncnc3)cc2O[C@H]1CN(C)C(=O)c1ccc2c(c1)OCO2`, the relative growth is inactive: 0.995.
Under `C[C@@H]1CCCCO[C@@H](CN(C)C(=O)C2CCCCC2)[C@H](C)CN([C@@H](C)CO)C(=O)c2cc(NS(=O)(=O)c3cccs3)ccc2O1` stands inactive: 0.982; under `COc1ccc2c3c([nH]c2c1)[C@H](CO)N(C[C@]13CCN(CC1)C(=O)Nc1ccc2c(c1)OCO2)C(=O)Nc1ccc(cc1)F`, inactive: 1.01.
The result for `C[C@H]1CC/C=C\[C@H]2O[C@@]34C=CCN(c5ccc(Cl)cc5)C(=O)[C@H]3N(CCO)C(=O)[C@]4(C)[C@@H]2C(=O)O1` reads inactive: 0.997.
The result for `CN1C(=O)c2cc(NC(=O)C3CCOCC3)ccc2OC[C@H]2O[C@@H](CC(=O)NCCc3ccncc3)CC[C@H]21` reads inactive: 0.997; that for `C[C@@H]1CN([C@@H](C)CO)C(=O)c2c(c3ccccc3n2C)-c2ccccc2CO[C@H]1CN(C)Cc1cccc(C(=O)Nc2ccccc2N)c1`, inactive: 0.998.
As for `C[C@H](CO)N1C[C@H](C)[C@@H](CN(C)C(=O)Nc2ccc(C(F)(F)F)cc2)OCCCC[C@H](C)Oc2ccc(NC(=O)Nc3ccc4c(c3)OCO4)cc2C1=O`, the relative growth was inactive: 1.01.
With `C[C@@H]1CN([C@H](C)CO)C(=O)c2cccc(NS(=O)(=O)c3cccs3)c2O[C@@H]1CN(C)S(=O)(=O)c1cn(C)cn1`, the relative growth is inactive: 0.978.
Regarding `CN1CCN(C(=O)C[C@H]2C[C@@H]3c4cc(NS(=O)(=O)c5ccc(F)cc5)ccc4O[C@@H]3[C@@H](CO)O2)CC1`, the relative growth is inactive: 1.03.
Take `C[C@H](CO)N1C[C@H](C)[C@@H](CN(C)C(=O)Nc2ccc3c(c2)OCO3)Oc2ccc(NC(=O)Nc3ccc(C(F)(F)F)cc3)cc2C1=O`: the relative growth is inactive: 0.991.
Take `COCCOC(=O)N1C(=O)[C@@]2(c3cc(C#CCCO)ccc31)[C@H](c1ccccc1OCCO)N1[C@H](c3ccccc3)[C@H](c3ccccc3)OC(=O)[C@H]1[C@@H]2C(=O)Nc1nc2ccccc2s1`: the relative growth was inactive: 1.02.
Take `C[C@H](CO)N1C[C@H](C)[C@H](CN(C)S(=O)(=O)c2cccs2)OCCCC[C@H](C)Oc2ccc(NC(=O)CCC(F)(F)F)cc2C1=O`: the relative growth was inactive: 0.997.
Under `C[C@@H]1CCCCO[C@H](CN(C)CC2CCCCC2)[C@H](C)CN([C@@H](C)CO)C(=O)c2cc(NC(=O)Nc3cccc4ccccc34)ccc2O1` stands inactive: 0.967.
Under `O=C(C[C@H]1NCCNC1=O)Nc1ccc2c(c1)OCCO2` stands inactive: 0.966.
On to `C[C@H](CO)N1C[C@H](C)[C@H](CN(C)Cc2ccc(-c3ccccc3)cc2)Oc2ccc(NC(=O)c3ccncc3)cc2C1=O`, for which the relative growth is inactive: 1.02.
The result for `COc1ccc(CN(C)C[C@H]2OCCCC[C@@H](C)Oc3ccc(NC(=O)Nc4ccc(F)cc4)cc3C(=O)N([C@@H](C)CO)C[C@H]2C)cc1` reads inactive: 0.979; that for `Cc1cccc(C)c1NC(=O)c1cc(S(N)(=O)=O)c(Cl)cc1O`, inactive: 0.974; that for `CCS(=O)(=O)Nc1ccc2c(c1)C(=O)N(C)C[C@H](OC)[C@H](C)CN(CCC(F)(F)F)[C@@H](C)CO2`, inactive: 1.02.
For the molecule `CCO[C@H]1OC(C(=O)N2CCN(Cc3ccc4c(c3)OCO4)CC2)=C[C@@H](C)[C@@H]1CCCOC(=O)NCCCCCC(=O)NO`, the relative growth is inactive: 0.996.
The result for `O=C(C[C@@H]1C[C@H]2c3cc(NC(=O)C4CCOCC4)ccc3O[C@H]2[C@H](CO)O1)NCc1cc(F)ccc1F` reads inactive: 0.985; that for `C[C@@H]1CCCCO[C@H](CN(C)C(=O)Nc2cccc3ccccc23)[C@H](C)CN([C@H](C)CO)C(=O)c2cc(NS(=O)(=O)c3cccs3)ccc2O1`, inactive: 1.03; that for `C[C@@H]1CCCCO[C@@H](CN(C)C(=O)Nc2ccc(C(F)(F)F)cc2)[C@H](C)CN([C@@H](C)CO)C(=O)c2cc(NC(=O)Nc3cccc4ccccc34)ccc2O1`, inactive: 1.01.
Under `CN(C)CCC=C1c2ccccc2C=Cc2ccccc21.Cl` stands inactive: 0.82; under `COc1cccc(C#Cc2ccc3c(c2)O[C@H](CN(C)C(=O)c2ccccn2)[C@H](C)CN([C@@H](C)CO)S3(=O)=O)c1`, inactive: 1.01.
Take `CO[C@H](C(=O)N(C)C[C@H]1OCc2ccccc2-c2c(n(C)c3ccccc23)C(=O)N([C@H](C)CO)C[C@H]1C)c1ccccc1`: the relative growth was inactive: 1.
